In all, about 33,000 sequences were measured (“E-score (-0.5 to 0.5)”: median about -0.036, highest 2% from about 0.37 on). Some of the results follow.
biological target: T1, Yer064c (UniProt P40041); assay: PBM E-score (8-mer binding enrichment) (E-score (-0.5 to 0.5)); higher = stronger / more preferred TF binding; most listed sequences are background and not binding sites; details: protein concentration: 200 nM; construct: GST-full length
T1 sequence: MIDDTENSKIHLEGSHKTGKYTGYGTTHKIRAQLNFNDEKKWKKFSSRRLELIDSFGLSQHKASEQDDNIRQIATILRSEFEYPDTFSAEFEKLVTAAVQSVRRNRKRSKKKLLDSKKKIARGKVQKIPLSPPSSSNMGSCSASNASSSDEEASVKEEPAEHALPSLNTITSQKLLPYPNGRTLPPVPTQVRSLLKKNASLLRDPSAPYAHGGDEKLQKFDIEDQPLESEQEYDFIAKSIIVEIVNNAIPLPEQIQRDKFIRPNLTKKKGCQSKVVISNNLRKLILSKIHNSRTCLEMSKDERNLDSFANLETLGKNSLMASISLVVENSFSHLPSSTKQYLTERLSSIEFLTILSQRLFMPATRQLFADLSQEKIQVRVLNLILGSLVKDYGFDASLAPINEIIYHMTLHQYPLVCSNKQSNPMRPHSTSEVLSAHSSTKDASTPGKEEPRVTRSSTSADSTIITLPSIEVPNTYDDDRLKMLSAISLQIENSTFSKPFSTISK
How it was run: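 Yeast transcription factors, full-length or as DNA-binding domains, were expressed with a GST tag using PURExpress in vitro transcription/translation. At about 100-200 nM they were applied to universal all-10-mer Agilent arrays, double-stranded by primer extension on fresh or once-stripped slides. Fluorescent anti-GST detected bound protein, and masliner normalised the scans. E-scores for ungapped eight-base words, pooled with reverse complements, came from the Universal PBM Analysis Suite.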

In order of rising “PBM E-score” value:
1. CGGAGGGC  -0.347
2. GCTAGCCC  -0.323
3. CCCCATCA  -0.309
4. CGAGGCTC  -0.301
5. TGCGTCAA  -0.294
6. CCAGGTTC  -0.291
7. ATAGGCCA  -0.285
8. AGGAAAAC  -0.285
9. AGCTTTCC  -0.279
10. CACCGGGG  -0.266
11. AAGCCGGT  -0.264
12. GGCCAGCA  -0.256
13. ACGTTCCG  -0.232
14. ACGGCTGC  -0.222
15. ATGGCAGC  -0.22
16. AGATCTCG  -0.219
17. CAGCTATC  -0.212
18. CCTGCCAG  -0.212
19. AACCTAGC  -0.21
20. ACCGTCGC  -0.193
21. GGCAGGCC  -0.192
22. GCTGTGCA  -0.191
23. CGTAGATC  -0.189
24. CACGGAGG  -0.181
25. CAAGTATA  -0.181
26. GCGACCCA  -0.174
27. GGAGACAA  -0.173
28. AGAGGATA  -0.17
29. AAAACTCT  -0.168
30. CAACCCCC  -0.166
31. AGCCGTCG  -0.165
32. AGAACCCT  -0.164
33. CCGTTGGA  -0.163
34. AGAATAGG  -0.16
35. ATCCTCTA  -0.16
36. CCCCCCGC  -0.157
37. CGGCCCGA  -0.157
38. AGCTTCGC  -0.155
39. AACGTCGG  -0.153
40. AGAGCTTC  -0.152
41. GTAAACCA  -0.152
42. AGAGTGGG  -0.15
43. TCGACCGA  -0.144
44. ACCGGGCG  -0.143
45. CGCTCGAA  -0.141
46. CGTACCAA  -0.137
47. ACGCATAC  -0.135
48. ATTTTCAG  -0.135
49. ACCTGTGG  -0.131
50. GACAATCC  -0.13
51. ATGCTAGC  -0.123
52. CAGTTCCC  -0.123
53. CCATCGAA  -0.122
54. ATCCGAAC  -0.122
55. AGAGCCGA  -0.121
56. ATGCAGCG  -0.12
57. AACGCAAG  -0.12
58. CTTTCCTC  -0.116
59. ACGAAACG  -0.116
60. ACCCTCGA  -0.113
61. CAATTCCC  -0.112
62. CTCCCCAC  -0.11
63. CGTCCTAG  -0.109
64. AGTGGTAC  -0.103
65. ATGTATGC  -0.102
66. ACGTGATG  -0.1
67. CATGTAGG  -0.0951
68. GTTCCGGA  -0.091
69. GCCTACGA  -0.0898
70. CAGACCGC  -0.0824
71. CCCACAAC  -0.0803
72. AGTAATGC  -0.077
73. AACCGAGA  -0.0746
74. GCTGCTTA  -0.0722
75. CTAGCGGA  -0.0703
76. ACTGCGCG  -0.0678
77. CCCTGTAG  -0.0674
78. AGGTCCTG  -0.0669
79. CAACACGA  -0.0636
80. AAGCAAGA  -0.0626
81. CAAAGGTG  -0.0619
82. CAAGTCCA  -0.0608
83. GATACTGC  -0.0585
84. CATACGGG  -0.0506
85. CCATCAGC  -0.05
86. CCCAATCC  -0.0499
87. CTCCTAGA  -0.0479
88. CTAATGGC  -0.0455
89. CTATTGCA  -0.0418
90. GTATCGTA  -0.0408
91. CGCTGGAC  -0.0398
92. GGTGGATA  -0.0384
93. GCGGGAGC  -0.0362
94. CTTATAGA  -0.0339
95. CAAATAGA  -0.0322
96. ACCACGCC  -0.0301
97. GACAAGTA  -0.0277
98. ACAAACCG  -0.0275
99. CCGTTTTA  -0.0266
100. ATGATCCG  -0.0261
101. CAAGGGAG  -0.0243
102. AGAGAGAG  -0.0213
103. AAACCACA  -0.0212
104. AGACGTCC  -0.0208
105. AGGGAAGA  -0.0141
106. GTACAAGA  -0.00845
107. CACCAGTG  -0.006
108. CACTCGCA  -0.00534
109. AAATACTG  -0.00209
110. CATTGCAC  -0.00199
111. AGCGTGCA  0.0006
112. AAACAGCG  0.00149
113. GTGGACGA  0.0034
114. AGCTGTTA  0.0047
115. CATGATGC  0.0125
116. CTAGTACA  0.0257
117. CAGTTGGG  0.0278
118. AAGCTGTA  0.0279
119. CACGCGGG  0.0291
120. CAATTGGA  0.0342
121. ACCACGAA  0.0355
122. CCAATTGG  0.0365
123. CACATTCA  0.0403
124. ATAACCCA  0.0412
125. TCGACAAA  0.0412
126. CGGTGGGA  0.0414
127. CTCACTGC  0.0462
128. CACTCAAC  0.0472
129. GGTAAGAA  0.0525
130. ATAGCTTA  0.0576
131. CGAATAAG  0.0604
132. ACATTAAT  0.0719
133. AGGTGAGA  0.0766
134. ACATAGTG  0.0787
135. GGCTATTA  0.101
136. ATCTGAAA  0.104
137. ATTGAGCA  0.106
138. ATAACGAT  0.11
139. ATTCGTAG  0.11
140. ACTATCAG  0.113
141. AGTTTCAC  0.114
142. AATCCTAT  0.115
143. ATCTAATA  0.125
144. TCCGACGA  0.129
145. ACTTCCGC  0.13
146. TTTAAAAA  0.133
147. ACTAGACA  0.138
148. ATTCACTG  0.138
149. ATAATCGA  0.138
150. AAAACGAC  0.14
151. AGGGAATC  0.148
152. ATGGATAA  0.15
153. GATTGTCA  0.152
154. CCAAAAAC  0.155
155. ATGGTTTC  0.169
156. CTCTGTGA  0.179
157. ATGGCTAG  0.181
158. TAGATAAA  0.192
159. ACCATTGA  0.196
160. AAAATGAC  0.196
161. CTTCAATC  0.202
162. TATTGTGA  0.253
163. AGTACTGA  0.255
164. CAGACTAG  0.262
165. CTCAGGAG  0.298
166. TAAGTCAA  0.344
167. AATCAGTC  0.368
168. GACTATTA  0.379
169. AAAGACTA  0.392
170. CGCAGTCA  0.422
171. GACTAACC  0.44
172. ACATGACT  0.48
